Test [1] has as its target T1, recombinant human VEGF-A165 (human, UniProt P15692-4 27-191).
T1 sequence (looked up): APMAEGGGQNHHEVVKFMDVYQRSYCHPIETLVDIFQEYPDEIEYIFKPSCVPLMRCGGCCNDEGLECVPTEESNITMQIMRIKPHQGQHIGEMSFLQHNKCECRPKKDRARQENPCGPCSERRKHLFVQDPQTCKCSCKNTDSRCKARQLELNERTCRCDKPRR
In words: cell-based or functional assay.

The next test deals with T2, recombinant human IL-6R (human, UniProt P08887 20-365, limits assumed).
T2 construct: Recombinant protein used in ELISA and as SPR analyte; also called hIL-6R
T2 sequence (looked up): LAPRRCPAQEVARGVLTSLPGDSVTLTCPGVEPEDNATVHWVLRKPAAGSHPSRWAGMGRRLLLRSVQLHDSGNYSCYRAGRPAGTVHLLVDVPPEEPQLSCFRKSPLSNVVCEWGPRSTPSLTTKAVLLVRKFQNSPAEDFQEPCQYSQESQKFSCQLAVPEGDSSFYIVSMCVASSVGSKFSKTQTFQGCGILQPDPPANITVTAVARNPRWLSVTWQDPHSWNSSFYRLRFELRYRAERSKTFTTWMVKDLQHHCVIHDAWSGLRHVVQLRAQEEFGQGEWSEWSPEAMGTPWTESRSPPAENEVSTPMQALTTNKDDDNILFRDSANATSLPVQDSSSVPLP
In words: ELISA on plate-coated recombinant human IL-6R; anti-human IgG1-Fc-HRP, OD450. As for the experimental part: (§1) After non-specific blocking using 1% BSA at 25° C. for 1 hour, a series of dilutions of test antibodies (“Abs”) were added into the coated wells and incubated at 25° C. for 1 hour. The bound Abs were detected using a secondary Ab (goat anti-human IgG1-Fc) conjugated with HRP followed by OD₄₅₀ reading.
The same ELISA procedure was performed with recombinant human IL-6R. […] Vobarilizumab is a single domain antibody against IL-6R. B781402 and B781405 are bispecific fusion antibodies that inhibit VEGF-A, B, PIGF and IL-6R.

The target in test [2] is T1, recombinant human VEGF-A165. In words: ELISA on plate-coated recombinant human VEGF-A165; anti-human IgG1-Fc-HRP, OD450. How it is done:
as §1

B1: EB-105BIe2 (other)
fusion polypeptide (IL-6R sdAb, VEGFR-1-D2, VEGFR-2-D3, IgG1 Fc, Ang-2 sdAb): EVQLVESGGGLVQAGGSLRLSCAASGDDLSSVDMGWYRQAPGKGLEFVGVISRGGGSTYYVDSVQGRFTISRDNAKNTVYLQMNSLRAEDTAVYYCKTEIPYFDDYWGQGTLVTVSSGGGGSGGGGSGGGGSSDTGRPFVEMYSEIPEIIHMTEGRELVIPCRVTSPNITVTLKKFPLDTLIPDGKRIIWDSRKGFIISNATYKEIGLLTCEATVNGHLYKTNYLTHRQTNTIIDVVLSPSHGIELSVGEKLVLNCTARTELNVGIDFNWEYPSSKHQHKKLVNRDLKTQSGSEMKKFLSTLTIDGVTRSDQGLYTCAASSGLMTKKNSTFVRVHEK[human IgG1 Fc skipped]GGGSGGGGSGGGGSEVQLVESGGGLVQPGGSLRLSCAASGLYFSSYDIAWVRQAPGKGLEFVSAIDVSGEHTYYADSVKGRFTISRDNAKNTLYLQMNSLRAEDTAVYYCNAVKWSDYGPDNDYWGQGTLVTVSS
notes: also called MFDDHD008
One may read the EC50 as the concentration that produces a half-maximal response. Regarding B1, the “IC50, inhibition of VEGF-A165-stimulated VEGFR-2 NF-AT luciferase reporter (HEK-293), luminescence” value (from here on “IC50, inhibition”) in test [1] was 0.264 nM. The EC50 in the test with recombinant human IL-6R was 0.13 nM; in test [2], 0.462 nM.

B2: EB-105BId2 (other)
fusion polypeptide (Ang-2-binding peptide, VEGFR-1-D2, VEGFR-2-D3, IgG1 Fc, IL-6R sdAb): AQTNFMPMDDLEQRLYEQFILQQGLEGGGGSGGGGSGGGGSSDTGRPFVEMYSEIPEIIHMTEGRELVIPCRVTSPNITVTLKKFPLDTLIPDGKRIIWDSRKGFIISNATYKEIGLLTCEATVNGHLYKTNYLTHRQTNTIIDVVLSPSHGIELSVGEKLVLNCTARTELNVGIDFNWEYPSSKHQHKKLVNRDLKTQSGSEMKKFLSTLTIDGVTRSDQGLYTCAASSGLMTKKNSTFVRVHEK[human IgG1 Fc skipped]GGGSGGGGSGGGGSEVQLVESGGGLVQAGGSLRLSCAASGDDLSSVDMGWYRQAPGKGLEFVGVISRGGGSTYYVDSVQGRFTISRDNAKNTVYLQMNSLRAEDTAVYYCKTEIPYFDDYWGQGTLVTVSS
notes: also called MFDDHD004
Turning to B2, the “IC50, inhibition” value in test [1] was found to be 0.3 nM. The EC50 with recombinant human IL-6R was 0.298 nM; in test [2], 1.06 nM.

B3: EB-105BId4 (other)
fusion polypeptide (Ang-2-binding peptide, VEGFR-1-D2, VEGFR-2-D3, IgG1 Fc, IL-6R sdAb): AQTNFMPMDDLEQRLYEQFILQQGLEGGGGSGGGGSGGGGSSDTGRPFVEMYSEIPEIIHMTEGRELVIPCRVTSPNITVTLKKFPLDTLIPDGKRIIWDSRKGFIISNATYKEIGLLTCEATVNGHLYKTNYLTHRQTNTIIDVVLSPSHGIELSVGEKLVLNCTARTELNVGIDFNWEYPSSKHQHKKLVNRDLKTQSGSEMKKFLSTLTIDGVTRSDQGLYTCAASSGLMTKKNSTFVRVHEK[human IgG1 Fc skipped]GGGSGGGGSGGGGSEVQLVESGGGLVQAGGSLRLSCAASGGDLSSVDMGWYRQAPGKGLEFVGVISRTGGSTYYVDSVQGRFTISRDNAKNTVYLQMNSLRAEDTAVYYCKTEIPGGDDYWGQGTLVTVSS
notes: also called MFDDHD006
Turning to B3, the “IC50, inhibition” value in test [1] was determined as 0.269 nM. Moreover, the results for the half-maximal effective concentration (EC50) (in the test with recombinant human IL-6R; in test [2]) were 0.143 nM and 0.734 nM, respectively.

B4: EB-105BId1 (other)
fusion polypeptide (IL-6R sdAb, VEGFR-1-D2, VEGFR-2-D3, IgG1 Fc, Ang-2-binding peptide): EVQLVESGGGLVQAGGSLRLSCAASGDDLSSVDMGWYRQAPGKGLEFVGVISRGGGSTYYVDSVQGRFTISRDNAKNTVYLQMNSLRAEDTAVYYCKTEIPYFDDYWGQGTLVTVSSGGSGGGSGGGGSGGGGGSGGGGSDTGRPFVEMYSEIPEIIHMTEGRELVIPCRVTSPNITVTLKKFPLDTLIPDGKRIIWDSRKGFIISNATYKEIGLLTCEATVNGHLYKTNYLTHRQTNTIIDVVLSPSHGIELSVGEKLVLNCTARTELNVGIDFNWEYPSSKHQHKKLVNRDLKTQSGSEMKKFLSTLTIDGVTRSDQGLYTCAASSGLMTKKNSTFVRVHEK[human IgG1 Fc skipped]GGGSGGGGSAQTNFMPMDDLEQRLYEQFILQQGLE
notes: also called MFDDHD003
Take B4: in test [1], the “IC50, inhibition” value was 0.304 nM. The results for the EC50 (with recombinant human IL-6R; in test [2]) were 0.117 nM and 0.562 nM, respectively.

B5: EB-105BId3 (other)
fusion polypeptide (IL-6R sdAb, VEGFR-1-D2, VEGFR-2-D3, IgG1 Fc, Ang-2-binding peptide): EVQLVESGGGLVQAGGSLRLSCAASGGDLSSVDMGWYRQAPGKGLEFVGVISRTGGSTYYVDSVQGRFTISRDNAKNTVYLQMNSLRAEDTAVYYCKTEIPGGDDYWGQGTLVTVSSGGSGGGSGGGGSGGGGGSGGGGSDTGRPFVEMYSEIPEIIHMTEGRELVIPCRVTSPNITVTLKKFPLDTLIPDGKRIIWDSRKGFIISNATYKEIGLLTCEATVNGHLYKTNYLTHRQTNTIIDVVLSPSHGIELSVGEKLVLNCTARTELNVGIDFNWEYPSSKHQHKKLVNRDLKTQSGSEMKKFLSTLTIDGVTRSDQGLYTCAASSGLMTKKNSTFVRVHEK[human IgG1 Fc skipped]GGGSGGGGSAQTNFMPMDDLEQRLYEQFILQQGLE
notes: also called MFDDHD005
With B5, the “IC50, inhibition” value in test [1] was 0.319 nM. Further, the figures for the EC50 (with recombinant human IL-6R; in test [2]) were 0.095 nM and 0.365 nM, respectively.

B6: EB-105BIe1 (other)
fusion polypeptide (Ang-2 sdAb, VEGFR-1-D2, VEGFR-2-D3, IgG1 Fc, IL-6R sdAb): EVQLVESGGGLVQPGGSLRLSCAASGLYFSSYDIAWVRQAPGKGLEFVSAIDVSGEHTYYADSVKGRFTISRDNAKNTLYLQMNSLRAEDTAVYYCNAVKWSDYGPDNDYWGQGTLVTVSSGGGGSGGGGSGGGGSSDTGRPFVEMYSEIPEIIHMTEGRELVIPCRVTSPNITVTLKKFPLDTLIPDGKRIIWDSRKGFIISNATYKEIGLLTCEATVNGHLYKTNYLTHRQTNTIIDVVLSPSHGIELSVGEKLVLNCTARTELNVGIDFNWEYPSSKHQHKKLVNRDLKTQSGSEMKKFLSTLTIDGVTRSDQGLYTCAASSGLMTKKNSTFVRVHEK[human IgG1 Fc skipped]GGGSGGGGSGGGGSEVQLVESGGGLVQAGGSLRLSCAASGDDLSSVDMGWYRQAPGKGLEFVGVISRGGGSTYYVDSVQGRFTISRDNAKNTVYLQMNSLRAEDTAVYYCKTEIPYFDDYWGQGTLVTVSS
notes: also called MFDDHD007
As for B6, the “IC50, inhibition” value in test [1] was determined as 0.572 nM. The figures for the EC50 (with recombinant human IL-6R; in test [2]) were 0.175 nM and 0.299 nM, respectively.

(Values after patent US20260265359A1 (Hoffmann-La Roche, published 2026).)
